# Experimental data taken from the supplement of paper PMC8728848.
# Some of the results follow.
# What was measured:
# Test in all cases: glycan array binding signal (z-score within array); higher = stronger binding
# Conditions in all cases: glycan notation: IUPAC condensed, linker removed
# [1] = biological target: Fuc(a1-2)[Gal(a1-3)]Gal(b1-4)GlcNAc
# Summary of the method: (§1)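 From the Consortium for Functional Glycomics database, 3228 arrays were curated, keeping only those whose protein sequence was available. Binding is given as a within-array Z-score averaged across arrays sharing a protein sequence and across linkers. Negative Z-scores can be read as non-binding.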
# [2] = biological target: Fuc(a1-2)[Gal(a1-3)]Gal(b1-4)GlcNAc(b1-2)Man(a1-3)[Fuc(a1-2)[Gal(a1-3)]Gal(b1-4)GlcNAc(b1-2)Man(a1-6)]Man(b1-4)GlcNAc(b1-4)GlcNAc
# Summary of the method: as §1
# [3] = biological target: Fuc(a1-2)[Gal(a1-3)]Gal(b1-4)[Fuc(a1-3)]GlcNAc
# Summary of the method: as §1
# [4] = biological target: Fuc(a1-2)[Gal(a1-4)]Gal(b1-4)GlcNAc
# Summary of the method: as §1
# [5] = biological target: Fuc(a1-2)[GalNAc(a1-3)]Gal
# Summary of the method: as §1
# [6] = biological target: Fuc(a1-2)[GalNAc(a1-3)]Gal(b1-3)GlcNAc
# Summary of the method: as §1
# [7] = biological target: Fuc(a1-2)[GalNAc(a1-3)]Gal(b1-3)GlcNAc(b1-2)Man(a1-3)[Fuc(a1-2)[GalNAc(a1-3)]Gal(b1-3)GlcNAc(b1-2)Man(a1-6)]Man(b1-4)GlcNAc(b1-4)GlcNAc
# Summary of the method: as §1
# [8] = biological target: Fuc(a1-2)[GalNAc(a1-3)]Gal(b1-4)Glc
# Summary of the method: as §1
# [9] = biological target: Fuc(a1-2)[GalNAc(a1-3)]Gal(b1-4)GlcNAc
# Summary of the method: as §1
# [10] = biological target: Fuc(a1-2)[GalNAc(a1-3)]Gal(b1-4)GlcNAc(b1-2)Man(a1-3)[GalNAc(a1-3)[Fuc(a1-2)]Gal(b1-4)GlcNAc(b1-2)Man(a1-6)]Man(b1-4)GlcNAc(b1-4)GlcNAc
# Summary of the method: as §1
# [11] = biological target: Fuc(a1-2)[GalNAc(a1-3)]Gal(b1-4)GlcNAc(b1-3)Gal(b1-4)GlcNAc
# Summary of the method: as §1
# [12] = biological target: Fuc(a1-2)[GalNAc(a1-3)]Gal(b1-4)GlcNAc(b1-3)Gal(b1-4)GlcNAc(b1-3)Gal(b1-4)GlcNAc
# Summary of the method: as §1
# [13] = biological target: Fuc(a1-2)[GalNAc(a1-3)]Gal(b1-4)[Fuc(a1-3)]GlcNAc
# Summary of the method: as §1
# [14] = biological target: Fuc(a1-2)[GalNAc(a1-4)]Gal(b1-4)GlcNAc
# Summary of the method: as §1
# [15] = biological target: Fuc(a1-2)[GalNAc(b1-3)]Gal
# Summary of the method: as §1
# Fuc(a1-3)GlcNAc = biological target: Fuc(a1-3)GlcNAc
# Summary of the method: as §1
# [16] = biological target: Fuc(a1-3)[Gal(b1-4)]Glc6S
# Summary of the method: as §1
# [17] = biological target: Fuc(a1-3)[Gal(b1-4)]GlcNAc
# Summary of the method: as §1
# [18] = biological target: Fuc(a1-3)[Gal(b1-4)]GlcNAc(b1-2)Man(a1-3)[Fuc(a1-3)[Gal(b1-4)]GlcNAc(b1-2)Man(a1-6)]Man(b1-4)GlcNAc(b1-4)GlcNAc
# Summary of the method: as §1
# [19] = biological target: Fuc(a1-3)[Gal(b1-4)]GlcNAc(b1-2)Man(a1-6)[Gal(b1-4)GlcNAc(b1-2)Man(a1-3)]Man(b1-4)GlcNAc(b1-4)GlcNAc
# Summary of the method: as §1
# [20] = biological target: Fuc(a1-3)[Gal(b1-4)]GlcNAc(b1-3)Gal(b1-3)[Fuc(a1-4)]GlcNAc
# Summary of the method: as §1
# [21] = biological target: Fuc(a1-3)[Gal(b1-4)]GlcNAc(b1-4)Gal(b1-4)[Fuc(a1-3)]GlcNAc
# Summary of the method: as §1
# [22] = biological target: Fuc(a1-3)[Gal(b1-4)]GlcNAc(b1-4)Gal(b1-4)[Fuc(a1-3)]GlcNAc(b1-4)Gal(b1-4)[Fuc(a1-3)]GlcNAc
# Summary of the method: as §1
# [23] = biological target: Fuc(a1-3)[Gal(b1-4)]GlcNAc6S
# Summary of the method: as §1
# [24] = biological target: Fuc(a1-3)[Gal3S(b1-4)]Glc6S
# Summary of the method: as §1
# [25] = biological target: Fuc(a1-3)[Gal3S(b1-4)]GlcNAc
# Summary of the method: as §1
# [26] = biological target: Fuc(a1-3)[Gal3S(b1-4)]GlcNAc6S
# Summary of the method: as §1
# [27] = biological target: Fuc(a1-3)[GalNAc(b1-4)]GlcNAc
# Summary of the method: as §1
# [28] = biological target: Fuc(a1-3)[Neu5Ac(a2-3)]Gal(b1-4)GlcNAc(b1-3)GalNAc
# Summary of the method: as §1
# Fuc(a1-4)GlcNAc = biological target: Fuc(a1-4)GlcNAc
# Summary of the method: as §1
binder,measurement,setting,value
"SSA (Sclerotinia sclerotiorum), A7XUK7 (protein) MGFKGVGTYEIVPYQAPSLNLNAWEGKLEPGAVVRTYTRGDKPSDNAKWQVALVAGSGDSAEYLIINVHSGYFLTATKENHIVSTPQISPTDPSARWTIKPATTHQYEVFTINNKVSELGQLTVKDYSTHSGADVLSASAKTADNQKWYFDAK",glycan array binding signal (z-score),[1],-0.393
same,glycan array binding signal (z-score),[2],-0.306
same,glycan array binding signal (z-score),[3],-0.326
same,glycan array binding signal (z-score),[4],-0.198
same,glycan array binding signal (z-score),[5],0.691
same,glycan array binding signal (z-score),[6],-0.312
same,glycan array binding signal (z-score),[7],-0.432
same,glycan array binding signal (z-score),[8],-0.1
same,glycan array binding signal (z-score),[9],0.185
same,glycan array binding signal (z-score),[10],-0.122
same,glycan array binding signal (z-score),[11],-0.161
same,glycan array binding signal (z-score),[12],-0.027
same,glycan array binding signal (z-score),[13],-0.105
same,glycan array binding signal (z-score),[14],3.68
same,glycan array binding signal (z-score),[15],1.84
same,glycan array binding signal (z-score),Fuc(a1-3)GlcNAc,-0.377
same,glycan array binding signal (z-score),[16],0.041
same,glycan array binding signal (z-score),[17],-0.339
same,glycan array binding signal (z-score),[18],-0.284
same,glycan array binding signal (z-score),[19],-0.462
same,glycan array binding signal (z-score),[20],-0.343
same,glycan array binding signal (z-score),[21],-0.309
same,glycan array binding signal (z-score),[22],-0.223
same,glycan array binding signal (z-score),[23],0.017
same,glycan array binding signal (z-score),[24],0.048
same,glycan array binding signal (z-score),[25],-0.194
same,glycan array binding signal (z-score),[26],0.188
same,glycan array binding signal (z-score),[27],-0.391
same,glycan array binding signal (z-score),[28],-0.113
same,glycan array binding signal (z-score),Fuc(a1-4)GlcNAc,-0.338
